Drawing on article PMC6602471, this text covers binding signal (log fluorescence intensity) for 52 sequences.

Some of the results follow. At the low end of the ranking, values are background and their order means little.

The assay has as its target T1, ELK1 (UniProt P19419).
T1 sequence: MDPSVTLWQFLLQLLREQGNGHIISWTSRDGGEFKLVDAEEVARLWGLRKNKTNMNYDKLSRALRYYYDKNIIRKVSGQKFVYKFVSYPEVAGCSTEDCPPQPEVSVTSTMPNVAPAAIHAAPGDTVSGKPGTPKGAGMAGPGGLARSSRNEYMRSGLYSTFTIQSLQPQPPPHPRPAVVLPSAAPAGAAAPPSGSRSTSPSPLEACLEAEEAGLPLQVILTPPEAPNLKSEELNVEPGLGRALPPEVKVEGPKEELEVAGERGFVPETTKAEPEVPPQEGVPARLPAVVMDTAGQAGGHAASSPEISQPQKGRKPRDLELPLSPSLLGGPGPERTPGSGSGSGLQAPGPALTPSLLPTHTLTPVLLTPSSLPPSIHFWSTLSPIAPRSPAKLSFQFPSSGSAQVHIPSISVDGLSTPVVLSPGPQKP
In words: custom PBM. The following applies: custom protein-binding microarray; buffer, salt, pH and temperature not stated; high values mean tight binding; double strand, one strand shown.
For the sequence “CTGGGACTTGGCCCAACTCTGCCACGTGGGTCGTTTGTCTTGATTCGCTTGACGCTGCTG”, the binding signal (log fluorescence intensity) was 8.95.

Turning to “TGTCGGGTAAGGGCATGTAGATCACGTGAATGAAAAGTCTTGATTCGCTTGACGCTGCTG”, the binding signal (log fluorescence intensity) was 8.92.

For “GTGTATAGGATCCCATCCAACTCACGTGTTAAAATGGTCTTGATTCGCTTGACGCTGCTG”, the binding signal (log fluorescence intensity) worked out at 8.85.

In the case of “CGGAAGTGTCGTAAACGTCGGATATCCGGATCTTCTGTCTTGATTCGCTTGACGCTGCTG”, the binding signal (log fluorescence intensity) amounted to 11.8.

As for “CTGGGACTTGACCCAACTCTGCCACGTTGGTCGTTTGTCTTGATTCGCTTGACGCTGCTG”, the binding signal (log fluorescence intensity) was 8.98.

For the sequence “CACAATTTTTACAGTAATGTAGCACGCGTAACTCCAGTCTTGATTCGCTTGACGCTGCTG”, the binding signal (log fluorescence intensity) stood at 8.83.

Regarding “CAGCATAGGAGTTCTTCCCTGAAGCAATTGATAACCGTCTTGATTCGCTTGACGCTGCTG”, the binding signal (log fluorescence intensity) came to 8.66.

“TCCGCCTACCAGCTCCACCCACTTCAGGCCTTGTAGGTCTTGATTCGCTTGACGCTGCTG”: the binding signal (log fluorescence intensity) is 8.86.

In the case of “GATTAATTACTGCCCTTATTCGCACGTGCCATAACAGTCTTGATTCGCTTGACGCTGCTG”, the binding signal (log fluorescence intensity) was 8.85.

As to “CGGAAGTGTCGTAAACGTCGGATATCCGATTCTTCTGTCTTGATTCGCTTGACGCTGCTG”, the binding signal (log fluorescence intensity) was 11.1.

In the case of “GCTGCTGCGGTGCATACCCCACCGGGTGTGACCCCGGTCTTGATTCGCTTGACGCTGCTG”, the binding signal (log fluorescence intensity) turned out to be 8.9.

In the case of “GATTAATTTATGCCCTTATTCGCACGTGCCATAACAGTCTTGATTCGCTTGACGCTGCTG”, the binding signal (log fluorescence intensity) came out at 8.81.

“GGAAAAAGGCTCAGGGTAACACCGGAAGTGGGCTTAGTCTTGATTCGCTTGACGCTGCTG”: the binding signal (log fluorescence intensity) stood at 10.9.

Consider “CTGAAGTGTCGTAAACGTCGGATATCCGGTTCTTCTGTCTTGATTCGCTTGACGCTGCTG”, for which the binding signal (log fluorescence intensity) was 12.3.

Consider “GGATAAAGGCCCAGGGTAACACCGGAAGTGGGCTTAGTCTTGATTCGCTTGACGCTGCTG”, for which the binding signal (log fluorescence intensity) was determined as 10.8.

In the case of “TGTCCGGTAAGGGAATGTAGATCACGTGAATGAAAAGTCTTGATTCGCTTGACGCTGCTG”, the binding signal (log fluorescence intensity) amounted to 8.96.

With “TCCGGCTACCAGATCCACCCACTTCAGGCCTTGTAGGTCTTGATTCGCTTGACGCTGCTG”, the binding signal (log fluorescence intensity) came out at 8.95.

For “TCCGGCTACCAGCTCCACCCACTTCAGGCCTTGCAGGTCTTGATTCGCTTGACGCTGCTG”, the binding signal (log fluorescence intensity) is 9.06.

Turning to “GGAAAAAGGCCCAGGGTAACACCGGAAGTGGGATTAGTCTTGATTCGCTTGACGCTGCTG”, the binding signal (log fluorescence intensity) stood at 10.9.

Turning to “TCCGGCTACCAACTCCACCCACTTCAGGCCTTGTAGGTCTTGATTCGCTTGACGCTGCTG”, the binding signal (log fluorescence intensity) was 8.83.

Regarding “GTGTATAGGATCCCATCCAACACACGTGTTAATATGGTCTTGATTCGCTTGACGCTGCTG”, the binding signal (log fluorescence intensity) was found to be 8.92.

“CACAATTTTTACAGTAATATAGCACGCGTAACTCCTGTCTTGATTCGCTTGACGCTGCTG”: the binding signal (log fluorescence intensity) turned out to be 8.92.

“GGAAAAAGGCCCAGGGTAACACCGGAAGTCGGCTTAGTCTTGATTCGCTTGACGCTGCTG”: the binding signal (log fluorescence intensity) worked out at 10.7.

Regarding “CAGCATAGGACTTCTTGCCTGAAGCAATTGATAACCGTCTTGATTCGCTTGACGCTGCTG”, the binding signal (log fluorescence intensity) is 8.74.

Consider “GATTAATTTCTGCCCTTATTCGCACTTGCCATAACAGTCTTGATTCGCTTGACGCTGCTG”, for which the binding signal (log fluorescence intensity) turned out to be 9.12.

Turning to “GGAAAAAGGCCCATGGTAACACCGGAAGTGGGCTTAGTCTTGATTCGCTTGACGCTGCTG”, the binding signal (log fluorescence intensity) turned out to be 10.8.

Turning to “GCTGCTGCGGTGCTTACCCCACCGGATGTGACCCCGGTCTTGATTCGCTTGACGCTGCTG”, the binding signal (log fluorescence intensity) worked out at 10.2.

Take “TGTCGGGTAAGGGAATGTAGGTCACGTGAATGAAAAGTCTTGATTCGCTTGACGCTGCTG”: the binding signal (log fluorescence intensity) came out at 9.06.

With “TGTCGGGTAAGGGAATGTAGATCACGTGAATGAAAAGTCTTGATTCGCTTGACGCTGCTG”, the binding signal (log fluorescence intensity) was 8.83.

As for “GCTGCTGCGGTGCATACCGCACCGGATGTGACCCCGGTCTTGATTCGCTTGACGCTGCTG”, the binding signal (log fluorescence intensity) worked out at 10.4.

For “CAGAATTTTTACAGTAATGTAGCACGCGTAACTCCTGTCTTGATTCGCTTGACGCTGCTG”, the binding signal (log fluorescence intensity) amounted to 8.74.

On to “GTGTACAGGATCCCATCCAACACACGTGTTAAAATGGTCTTGATTCGCTTGACGCTGCTG”, for which the binding signal (log fluorescence intensity) turned out to be 8.86.

Turning to “TAAAGGGAAGACGGTTGTGGTAGTACCGGGTATTAAGTCTTGATTCGCTTGACGCTGCTG”, the binding signal (log fluorescence intensity) was determined as 8.87.

Regarding “ACTGCTGCGGTGCATACCCCACCGGATGTGACCCCGGTCTTGATTCGCTTGACGCTGCTG”, the binding signal (log fluorescence intensity) stood at 10.4.

As for “TAAAGGGAAGACGGTTGTGGTAGTTCCGGTTATTAAGTCTTGATTCGCTTGACGCTGCTG”, the binding signal (log fluorescence intensity) came out at 11.6.

On to “GGAAAAAGGCCCAGGGTAACACCGGAAGTGGGTTTAGTCTTGATTCGCTTGACGCTGCTG”, for which the binding signal (log fluorescence intensity) was determined as 10.9.

As for “CGGAAGTGTCGTCAACGTCGGATATCCGGTTCTTCTGTCTTGATTCGCTTGACGCTGCTG”, the binding signal (log fluorescence intensity) came to 12.6.

With “TGTCGGGTAAGGGAATGGAGATCACGTGAATGAAAAGTCTTGATTCGCTTGACGCTGCTG”, the binding signal (log fluorescence intensity) is 8.91.

For the sequence “GATTAATTTCTGCCCTTATTCGCACGTGCCATAAGAGTCTTGATTCGCTTGACGCTGCTG”, the binding signal (log fluorescence intensity) was determined as 8.87.

On to “TGTCGGGTAAGGGAATGTAGATCACGTGAATGCAAAGTCTTGATTCGCTTGACGCTGCTG”, for which the binding signal (log fluorescence intensity) was 8.85.

As to “TCCGGCTACCAGCTCCACCCACTTCAGGCCTTTTAGGTCTTGATTCGCTTGACGCTGCTG”, the binding signal (log fluorescence intensity) is 8.79.

For the sequence “GATTAATTTCTGCCCTTTTTCGCACGTGCCATAACAGTCTTGATTCGCTTGACGCTGCTG”, the binding signal (log fluorescence intensity) came to 8.98.

As for “GGAAAAAGTCCCAGGGTAACACCGGAAGTGGGCTTAGTCTTGATTCGCTTGACGCTGCTG”, the binding signal (log fluorescence intensity) was 11.

Turning to “TAAAGGGAAGACGGTTGTGGTAGTTCCGGGTATTCAGTCTTGATTCGCTTGACGCTGCTG”, the binding signal (log fluorescence intensity) stood at 11.2.

Regarding “GTGTATAGGATCCCATCCAGCACACGTGTTAAAATGGTCTTGATTCGCTTGACGCTGCTG”, the binding signal (log fluorescence intensity) was determined as 8.83.

As for “CAGCATAGGACTTCTTCCCTGAAGCAATCGATAACCGTCTTGATTCGCTTGACGCTGCTG”, the binding signal (log fluorescence intensity) is 8.85.

As to “GCTGCTGCGGTGCATACCCCACCGGATGTGACCCCGGTCTTGATTCGCTTGACGCTGCTG”, the binding signal (log fluorescence intensity) worked out at 10.3.

With “CACAATTTTTACAGTAATGTAGCACGCGGAACTCCTGTCTTGATTCGCTTGACGCTGCTG”, the binding signal (log fluorescence intensity) came out at 8.97.

For the sequence “GTGTATAGCATCCCATCCAACACACGTGTTAAAATGGTCTTGATTCGCTTGACGCTGCTG”, the binding signal (log fluorescence intensity) turned out to be 8.8.

For the sequence “GCTCCTGCGGTGCATACCCCACCGGATGTGACCCCGGTCTTGATTCGCTTGACGCTGCTG”, the binding signal (log fluorescence intensity) amounted to 10.3.

Turning to “TAAAGGAAAGACGGTTGTGGTAGTTCCGGGTATTAAGTCTTGATTCGCTTGACGCTGCTG”, the binding signal (log fluorescence intensity) was determined as 11.4.

For “GGAAAAAGGCCCAGGGTAACACCGGATGTGGGCTTAGTCTTGATTCGCTTGACGCTGCTG”, the binding signal (log fluorescence intensity) stood at 10.1.
